# Source: the RNAGym collection of RNA variant scans (doi:10.1073/pnas.2313332121)
# Variants at the background level are over-represented here.
# B1: TPR 5TU (parent)
# chain: GGAUCUUCUCGAUCUAACAAAAAAGACAAAUCUGCCACAAAGCUUGAGAGCAUCUUCGGAUGCAGAGGCGGCAGCCUUCGGUGGCGCGAUAGCGCCAACGUUCUCAACUAUGACACGCAAAACGCGUGCUCCGUUGAAUGGAGUUUAUCAUG
# Variants of: B1
# Experiment: polymerase ribozyme fitness, log enrichment relative to wild type (log ratio); higher = more active; in vitro selection for triplet polymerase activity
# Summary of the method: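 A single round of triplicate in vitro selection, including frozen incubation at −7 °C, was applied to PCR-built, transcribed mutant libraries of each subunit of a heterodimeric triplet polymerase ribozyme. Illumina sequencing of input and output libraries retained genotypes with ≥10 input reads and ≥1 read per output. Fitness is the base-2 logarithm of genotype enrichment divided by wild-type enrichment, from inverse-variance-weighted replicate averages.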
row,Variant,polymerase ribozyme fitness (log ratio)
1,G50C U78C C85U C108U,≤ -4.2
2,C51U G65C C87U,≤ -4.2
3,A49G C76U A89C C96A,-2.23
4,G50A G59U C76A C103U A122G U135A U145C,≤ -4.2
5,G50A A52C G84U A122U G141U,-3.68
6,C51G C79G G86U C114U U134A,≤ -4.2
7,C51A C87A G133U C149G,≤ -4.2
8,G50A G143C,-3.85
9,G50C C57G G140U U144G U146A,≤ -4.2
10,A49C U53A,≤ -4.2
11,G50A C54A C95A A107G C108U U148C C149U,≤ -4.2
12,G50A G59A C96U A122U A142G A147U,-3.67
13,G50U G59C C85U C87A G92C A107G A137G A138U,≤ -4.2
14,C51A A60G C95G U146C U151G,≤ -4.2
15,A49G A97G,-1.11
16,G50A C95U C125U,-2.44
17,C51U A52C C85G A106G C125U,≤ -4.2
18,A49C G86U C96G C123U U146G,≤ -4.2
19,G50A C57U C72G G86A U130G,≤ -4.2
20,C51A U55G A60G C93U,-2.7
21,G50C A115U A137C,≤ -4.2
22,C51G G62C C85A G143A,-1.5
23,C51A G86U A89U U134A,≤ -4.2
24,G50C A66G G84A C87U U139A G143U,≤ -4.2

row,Variant,polymerase ribozyme fitness (log ratio)
1,A49U G141U A142C,≤ -4.2
2,C51U C95G C105U U145A,-1.72
3,C51U G84A,-0.489
4,G50C U102G,-3.32
5,G50U A73U C87U,-2.26
6,G50U C57U G84U C103U,-2.21
7,C51U C93U,-2.53
8,C51U C93A,-2.34
9,C51U G92U C99A A106G C123G C129U,-2.74
10,A49G U82G C87U G94A A120G,≤ -4.2
11,A49C G94C C123G,≤ -4.2
12,G50A G141C,-1.77
13,C51A G68A A73U C76U C95A C99U,≤ -4.2
14,G50A C85G C93A C129G,≤ -4.2
15,C51G G62U G67C A89C C96A,≤ -4.2
16,G50A C87A C118U,≤ -4.2
17,C51G C87A A115U C118U G140U,≤ -4.2
18,G50C C54A C93G U135C U145G,≤ -4.2
19,G50U U77A G86A A97C,≤ -4.2
20,C51U G67A C72A C123U C132A U134C,≤ -4.2
21,G50C C105G A142C,≤ -4.2
22,A49C G112C A142U,≤ -4.2
23,G50U C95G G100A,≤ -4.2
24,C51U G133A,≤ -4.2

row,Variant,polymerase ribozyme fitness (log ratio)
1,G50A C103U,-1.49
2,G50A G94U C116G,-1.85
3,G50C U55A C72U C116G A120G C129A,≤ -4.2
4,G50A U53C U56A A91U G94C U127G G143U,≤ -4.2
5,C51U C87G C93G C105G A106C A113G,≤ -4.2
6,G50C A73C A106C,≤ -4.2
7,A49C G58C A66G C93G A107U A120U,≤ -4.2
8,A49C U77G G80C A91U C116G,≤ -4.2
9,C51U C95G A110U G141U,≤ -4.2
10,G50C G92U A119U,≤ -4.2
11,G50C C57U G59C C99G,≤ -4.2
12,C51G C87A G126U U148A,≤ -4.2
13,G50C C54U G83C G94U C108G,≤ -4.2
14,A49C G68C C95U C123U U148A,≤ -4.2
15,A49C G65A C85A G140A,≤ -4.2
16,A49C U55A G84U C85U G126C U145G U148C,≤ -4.2
17,A49G A52U G58C C108G U134C C149U,≤ -4.2
18,G50A U56A,-1.5
19,A49U C85G A106U,≤ -4.2
20,C51A G58U G59A C85A,≤ -4.2
21,G50C C54A G80C C93G,≤ -4.2
22,G50U C96U C99A C103G G124C C129A U144G,≤ -4.2
23,G50A C95U,-2.44
24,A49G C54A G70U G83C,≤ -4.2

row,Variant,polymerase ribozyme fitness (log ratio)
1,A49C U55A C76U C85G C108U A138U,≤ -4.2
2,C51U C87A A97U A107U,≤ -4.2
3,G50U A97U A147U,0.621
4,G50U G68A C93U C116A U146C,≤ -4.2
5,G50U C87A G112C C123U U148G,≤ -4.2
6,C51A G67U C79U C93G C99U,≤ -4.2
7,G50C A52C A73U U77G C79A G88A U102A C125G,≤ -4.2
8,C51U G81C C85U G117C U134A A137G,-3.98
9,C51U C96U G124A,-0.0401
10,C51G G58C,-1.42
11,G50A U145C,-0.761
12,G50A G71C U82G C85G,≤ -4.2
13,G50A A52C A97G G100A C114G G133U,≤ -4.2
14,A49G G50U A73C G83C C93G C108U,≤ -4.2
15,C51A C57G G68C A73C C76G G86U G100C A120G A122C U134A,≤ -4.2
16,C51G C79A,≤ -4.2
17,G50U U139C,-3.65
18,A49C U53A G86U A115G,≤ -4.2
19,G50C C125A,-2.76
20,G50C A119U,-3.92
21,G50A G62A G117A,-1.7
22,G50C A73U G84U G133U,≤ -4.2
23,G50A U82G G88C G92U A120C A137C C149U,≤ -4.2
24,G50U U53A G58A A73G C79A C93A A107U C116G G136C,≤ -4.2

row,Variant,polymerase ribozyme fitness (log ratio)
1,G50C G84U C105G,≤ -4.2
2,C51U C96U,-0.419
3,C51U C57A G68A,≤ -4.2
4,A49G G83A C99U U145G,≤ -4.2
5,C51A U134G U144A,-4.17
6,G50A U56A G71U A115C A137G A138G,≤ -4.2
7,C51A C76U U109G A137G,≤ -4.2
8,A49U G70U C85G U90C C131U,≤ -4.2
9,G50U G65C A66C C96G,≤ -4.2
10,G50C U56G G58C C85U G86C U102G C105G U139G G143U U151A,≤ -4.2
11,G50U C63U C79G C131G A137C,≤ -4.2
12,C51G G84A U90C U134C,≤ -4.2
13,C51G C85A A89C A91G,≤ -4.2
14,G50C U55A G58A A60U A89U G94C C103U C125G,≤ -4.2
15,A49G G62A G70U G94C C105A A107U,≤ -4.2
16,A49U A52C G71U G83C,≤ -4.2
17,G50C U78G G80A G83A U130A A142U,≤ -4.2
18,C51G A106G,-3.04
19,A49U C96G,-0.972
20,C51U U61A G81U G86A C131G,≤ -4.2
21,A49U A89U C132U,-2.65
22,A49U U53A G59A C85U A98G U148C,≤ -4.2
23,C51G C96A A147C,-3.82
24,A49C C93U U130A G152U,≤ -4.2

row,Variant,polymerase ribozyme fitness (log ratio)
1,C51A U102A,-1.41
2,G50A A115G,-2.49
3,G50A U78G G86A A115U,≤ -4.2
4,G50A U78G G86U U127C,≤ -4.2
5,A49G C95U,-0.995
6,C51G U56A A97U C123U,-3
7,A49C U53A G81C A98U G100A C103A,≤ -4.2
8,A49G A52G U56A G74C,≤ -4.2
9,A49C U53A C54A C87U U102C,≤ -4.2
10,C51G A73U,-3.44
11,G50A C95G G124A G126A G140U C149U,≤ -4.2
12,A49C U77A G86C C87U A97G,≤ -4.2
13,A49G A52G U55A G84C U90G G100U A113G,≤ -4.2
14,A49U G88A,≤ -4.2
15,A49C G94C,-4.16
16,G50C U53A U55A C85G G88C C116G,≤ -4.2
17,G50U C85A,-1.4
18,G50C C75U C85G,≤ -4.2
19,G50C G65U A66G G88U,≤ -4.2
20,G50A C57G C87U A106G A110C U111C A115C G141A,≤ -4.2
21,A49C U61G C99G G124A,≤ -4.2
22,C51G C75G,≤ -4.2
23,G50C C54G C87G A98U G124A G126U A147C,≤ -4.2
24,G50C U55C G100A A115G U127C,≤ -4.2

row,Variant,polymerase ribozyme fitness (log ratio)
1,C51A C96A,-1.26
2,A49C G62C C93A,≤ -4.2
3,G50U U56G C57G C69U C96A C99A A107G C116G,≤ -4.2
4,C51G C79G C96G,≤ -4.2
5,C51G C75A C95U C118U C125U G126A A137G G140A,≤ -4.2
6,A49C U61G A73G C99U U134A U146A A147G,≤ -4.2
7,G50A G84A U104G A122U G133U G141C,≤ -4.2
8,A49G C54U G71U C87A A106G A121U U127C U148A,≤ -4.2
9,C51G G59A A73G U90G A97U A98U G126A,≤ -4.2
10,A49G G126U,-0.157
11,A49G C51A A66U U82A G86A C103U,≤ -4.2
12,C51G G58C G62A G88C C105U,≤ -4.2
13,A49C G92C U104A A137C,≤ -4.2
14,C51G G83U A110C G140C,≤ -4.2
15,C51U C54U G58A A64G C69U C72G U77C G84U U101C C116A U146C,≤ -4.2
16,A49G C85A G143U,≤ -4.2
17,G50A C54A C75G C103U,≤ -4.2
18,G50U A60U,-0.536
19,A49U C57A G81A A98C U148G,≤ -4.2
20,G50U C87U G136U,-2.29
21,G50C A64U C93G U111G C116U G143U,≤ -4.2
22,C51U C85U G100C,≤ -4.2
23,A49C G50C G67C C72G G84A C108A A142G A147U,≤ -4.2
